Drawing on article PMC6451091, this text covers binding signal for 57 sequences.

Holding throughout (details): 20 mM HEPES pH 7.9, 100 mM NaCl, 1 mM DTT, 0.2 mg/mL BSA, 0.02% Triton X-100, 2% milk, 0.4 mg/mL salmon testes DNA; 1 h; temperature not stated; high values mean tight binding; double strand, one strand shown; sequences stand for … in GCCTAGCAC…GTGCTAGGTCTTGATTCGCTTGACGCTGCTG
One test has as its target PU.1 (IVT) (UniProt P17947). The test can be described thus: protein-binding microarray (PBM).
Test [1] addresses PU.1 (endogenous, THP-1 nuclear extract) (UniProt P17947). As to the kind of experiment: nuclear extract protein-binding microarray (nextPBM).
Test [2] concerns the target T1, FLI1 (endogenous, THP-1 nuclear extract) (UniProt Q01543).
T1 sequence: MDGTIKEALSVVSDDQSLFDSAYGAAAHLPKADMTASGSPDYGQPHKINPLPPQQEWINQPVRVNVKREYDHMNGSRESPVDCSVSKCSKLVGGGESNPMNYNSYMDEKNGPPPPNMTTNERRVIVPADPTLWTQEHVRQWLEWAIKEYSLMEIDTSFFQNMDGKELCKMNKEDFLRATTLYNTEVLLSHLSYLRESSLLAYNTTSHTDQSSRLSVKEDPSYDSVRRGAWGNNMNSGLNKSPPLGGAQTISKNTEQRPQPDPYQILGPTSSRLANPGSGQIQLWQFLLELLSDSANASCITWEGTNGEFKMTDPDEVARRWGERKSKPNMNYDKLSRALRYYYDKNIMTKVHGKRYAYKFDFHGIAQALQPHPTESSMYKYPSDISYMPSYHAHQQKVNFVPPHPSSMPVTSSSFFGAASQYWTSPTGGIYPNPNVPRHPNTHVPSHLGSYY
Described as above.

The other results are listed elsewhere or left out. For part of these data: At the low end of the ranking, values are background and their order means little. For part of these data: Measured with an extract: partners may take part in the binding.

On to CAAAAAGGGCAGTGGATGCT, for which the binding signal with PU.1 (IVT) was 0.235 z-score; in test [1], -0.0128 z-score; in test [2] it was 0.175 z-score.
As for AGGAAGAGGAAGTGGAAGAA, the figures for the binding signal (with PU.1 (IVT); in test [1]; in test [2]) were 6.4 z-score, 6.51 z-score and 3.54 z-score, respectively.
For the sequence CCAAAGAGGAAGTGAATGAA, the results for the binding signal (with PU.1 (IVT); in test [1]; in test [2]) were 6.6 z-score, 6.77 z-score and 3.72 z-score, respectively.
As to AAAAGAAGGAAGTGTCCAGT, the binding signal with PU.1 (IVT) turned out to be 4.96 z-score; in test [1], 5.34 z-score; in test [2] it was 2.18 z-score.
On to AGAGAGAGGAAGTGCCACAC, for which the binding signal came out at 3.91 z-score with PU.1 (IVT), 4.65 z-score in test [1] and 2.35 z-score in test [2].
The like results for TTCAGGGGGAAGTACTGTGT were, in that order, 3.94 z-score, 3.75 z-score and 1.79 z-score.
On the same counts, the results for AAAAAGAGGAAGTCAAACAA are 8.71 z-score, 7.17 z-score and 4.29 z-score.
The like results for ACAGGAAGGAAGTGTGGGGA were, in that order, 2.25 z-score, 1.98 z-score and 2.97 z-score.
As to AGAAAGGGGAAGTGAGCACA, the binding signal in the test with PU.1 (IVT) is 7.09 z-score; in test [1] it was 7.11 z-score; in test [2] it was 3.51 z-score.
On the same counts, the results for CAAAAAGGGAAGTGGAGGCT are 6.26 z-score, 6.46 z-score and 2.67 z-score.
On the same counts, the results for AGAATGGGGAAGTGCGACAA are 6.54 z-score, 6.51 z-score and 2.34 z-score.
The like results for GGGGAAGGGAAGTGCTGGGT were, in that order, 2.31 z-score, 2.69 z-score and 1.52 z-score.
Consider GGGGTGAGGAAGTGAAATGA, for which the values for the binding signal (in the test with PU.1 (IVT); in test [1]; in test [2]) were 3.82 z-score, 3.43 z-score and 2.22 z-score, respectively.
The like results for AGAAAGAGGAAATGAATATA were, in that order, 5.78 z-score, 5.89 z-score and 3.18 z-score.
On the same counts, the results for CTTTAGAGGAAGTGTGAGCT are 4.17 z-score, 4.75 z-score and 2.32 z-score.
As for GAAAAGAGGAAGTGAGAAAC, the binding signal with PU.1 (IVT) was determined as 8.29 z-score; in test [1], 7.38 z-score; in test [2], 4.18 z-score.
As to ACAGGAGGGAAGTGTGAAAT, the binding signal with PU.1 (IVT) amounted to 2.15 z-score; in test [1], 1.99 z-score; in test [2], 1.26 z-score.
As for AGAAAAAGGAAGTGACATAC, the results for the binding signal (with PU.1 (IVT); in test [1]; in test [2]) were 6.03 z-score, 6.17 z-score and 3.25 z-score, respectively.
Regarding TTTAAAGGGAAGTGAACTAC, the figures for the binding signal (with PU.1 (IVT); in test [1]; in test [2]) were 3.8 z-score, 4.2 z-score and 1.74 z-score, respectively.
On the same counts, the results for TGAAAGAGGAACCGCAACAC are 4.1 z-score, 4.41 z-score and 1.51 z-score.
TGACAGAGGAAGTGAATCTC: the values for the binding signal (with PU.1 (IVT); in test [1]; in test [2]) were 3.77 z-score, 3.94 z-score and 2.69 z-score, respectively.
Regarding TGAAAGAGGAAGTGCAACAA, the binding signal with PU.1 (IVT) came out at 7.1 z-score; in test [1], 6.92 z-score; in test [2] it was 3.79 z-score.
On the same counts, the results for TGAAAGAGGTAGTGCAACCA are 1.11 z-score, 1.74 z-score and -0.181 z-score.
On to ATGATGAGGAAGTAGAATCA, for which the binding signal in the test with PU.1 (IVT) turned out to be 5.49 z-score; in test [1], 5.91 z-score; in test [2] it was 2.39 z-score.
The like results for AAAATGAGGAACTGATCAAA were, in that order, 6.67 z-score, 6.8 z-score and 2.17 z-score.
As for CAGAAGAGGAAGTTCAGAAG, the binding signal in the test with PU.1 (IVT) worked out at 6.7 z-score; in test [1] it was 6.72 z-score; in test [2], 3.31 z-score.
Regarding GAGAAGGGGAAGTCCCAGAA, the binding signal is 4.88 z-score with PU.1 (IVT), 5.45 z-score in test [1] and 2.16 z-score in test [2].
The like results for GAGAAGGGGAAGTGTTCTCA were, in that order, 5.57 z-score, 5.72 z-score and 2.37 z-score.
The like results for GGAGAGAGGAAGTCAACTGA were, in that order, 3.75 z-score, 3.79 z-score and 2.36 z-score.
On the same counts, the results for GCAGAGAGGAAGTGTGAATG are 3.72 z-score, 3.89 z-score and 2.88 z-score.
Consider AGTATAAGGAAGTGTAGAAA, for which the binding signal with PU.1 (IVT) came to 3.92 z-score; in test [1] it was 3.51 z-score; in test [2] it was 1.95 z-score.
On the same counts, the results for AAAATAGGGAAGTGCCTTTT are 7.65 z-score, 7.1 z-score and 2.96 z-score.
On the same counts, the results for AAAATGAGGAAGTCAAAACA are 7.95 z-score, 7.56 z-score and 3.36 z-score.
On to AGAATGGGGAAGTGGAAATC, for which the binding signal in the test with PU.1 (IVT) amounted to 6.86 z-score; in test [1], 6.84 z-score; in test [2] it was 3.09 z-score.
For CAAATGAGGAACTGATGCGC, the binding signal with PU.1 (IVT) was 6.12 z-score; in test [1], 6.35 z-score; in test [2] it was 1.89 z-score.
On the same counts, the results for AAAATGAGGAAGTGACTTTG are 8.87 z-score, 7.47 z-score and 4.62 z-score.
Consider TAAAAGAGGAAGTCTCTTTT, for which the binding signal in the test with PU.1 (IVT) was found to be 8.23 z-score; in test [1], 7.48 z-score; in test [2], 3.87 z-score.
For the sequence AAAAAGAGGAAGTGATGAGT, the binding signal came out at 8.92 z-score in the test with PU.1 (IVT), 7.55 z-score in test [1] and 5.07 z-score in test [2].
In the case of TGAAATAGGAAGTGCAACCA, the binding signal was determined as 3.78 z-score with PU.1 (IVT), 4.33 z-score in test [1] and 2.25 z-score in test [2].
Take AGAAAAAGGAAGTGATGTAC: the binding signal was found to be 6.23 z-score in the test with PU.1 (IVT), 6.14 z-score in test [1] and 3.15 z-score in test [2].
As to AGAATGAGGAACTGTGTCCC, the binding signal with PU.1 (IVT) was 5.43 z-score; in test [1], 6.2 z-score; in test [2], 1.54 z-score.
The like results for AAATTGGGGAAGTCTTCTTA were, in that order, 5.74 z-score, 5.82 z-score and 1.92 z-score.
The like results for CAAAGAAGGAAGTCCCAAGG were, in that order, 3.14 z-score, 3.88 z-score and 1.67 z-score.
On the same counts, the results for GGGAAGAGGAAGTGGGGACG are 5.48 z-score, 6.22 z-score and 3.19 z-score.
With TGCAAGAGGAAGTGGAGGCA, the figures for the binding signal (with PU.1 (IVT); in test [1]; in test [2]) were 4.51 z-score, 5.27 z-score and 2.97 z-score, respectively.
The like results for AGAAAGAGGAAGTTGGCTCT were, in that order, 8.56 z-score, 7.36 z-score and 4.1 z-score.
TTAAACAGGAACTGGAGTCA: the results for the binding signal (with PU.1 (IVT); in test [1]; in test [2]) were 3.39 z-score, 3.31 z-score and 2.1 z-score, respectively.
On the same counts, the results for CAAATGAGGAAGTCATTTGT are 7.84 z-score, 7.45 z-score and 3.54 z-score.
In the case of CCGAAGGGGAAGTCAGAAAG, the binding signal in the test with PU.1 (IVT) is 4.35 z-score; in test [1], 4.33 z-score; in test [2], 1.87 z-score.
In the case of ATGGTGAGGAAGTGTGCATG, the binding signal in the test with PU.1 (IVT) was 2.66 z-score; in test [1], 2.85 z-score; in test [2] it was 1.74 z-score.
The like results for CTTATGGGGAAGTGGGAGGT were, in that order, 4.56 z-score, 4.96 z-score and 2.05 z-score.
The like results for GAAAACAGGAAGTCAAATTT were, in that order, 7.67 z-score, 7.29 z-score and 4.92 z-score.
CAAAAGAGGAAGTGGTGAAA: the figures for the binding signal (with PU.1 (IVT); in test [1]; in test [2]) were 8.4 z-score, 7.23 z-score and 4.12 z-score, respectively.
With GGAAAGAGGAAGTCAAACTA, the binding signal in the test with PU.1 (IVT) was 7.68 z-score; in test [1], 7.38 z-score; in test [2], 4.45 z-score.
As to TAGAATAGGAAGTGAAGTAC, the binding signal with PU.1 (IVT) was 3.66 z-score; in test [1] it was 3.18 z-score; in test [2] it was 2.34 z-score.
For the sequence CAAAAAGGGACGTGGATGCT, the values for the binding signal (with PU.1 (IVT); in test [1]; in test [2]) were 0.256 z-score, 0.379 z-score and 0.474 z-score, respectively.
The like results for GGAAAGAGGAAGTGGCAGGA were, in that order, 7.44 z-score, 7.12 z-score and 3.69 z-score.
